Source: US20180244796A1 (CARSGEN THERAPEUTICS, published 2018)

B1: chimeric antigen receptor P1A6E-28BBZ on CTL cells (receptor)
chain: QVQLEQSGLGLVKPSQTLSLTCAISGDTVSSDSAAWNWIRQSPSRGLEWLGRTYYRSKWFNDYAVSVKGRITINSDTSKNQFSLQLNSVTPEDTAVYYCARSNSYYYYAMDVWGQGTLVTVSSGGGGSGGGGSGGGGSQAVLTQPSSLSASPGASASLTCTLRSGINVGIYRIYWYQQRPGSPPQILLTYKSDSDKYQGSGVPSRFSGSKDASANAGILLISGLQSEDEADYYCMIWHSGGWVFGGGTKVTVLGTTTPAPRPPTPAPTIASQPLSLRPEACRPAAGGAVHTRGLDFACDFWVLVVVGGVLACYSLLVTVAFIIFWVRSKRSRLLHSDYMNMTPRRPGPTRKHYQPYAPPRDFAAYRSKRGRKKLLYIFKQPFMRPVQTTQEEDGCSCRFPEEEEGGCEL[about 120 residues cut from this listing]
notes: Expressed on human CTL cells by lentivirus; also called scFv(MSLN)-CD28a-CD28b-CD137-CD3 zeta
B2: chimeric antigen receptor P1A6E-Z on CTL cells (receptor)
chain: QVQLEQSGLGLVKPSQTLSLTCAISGDTVSSDSAAWNWIRQSPSRGLEWLGRTYYRSKWFNDYAVSVKGRITINSDTSKNQFSLQLNSVTPEDTAVYYCARSNSYYYYAMDVWGQGTLVTVSSGGGGSGGGGSGGGGSQAVLTQPSSLSASPGASASLTCTLRSGINVGIYRIYWYQQRPGSPPQILLTYKSDSDKYQGSGVPSRFSGSKDASANAGILLISGLQSEDEADYYCMIWHSGGWVFGGGTKVTVLGTTTPAPRPPTPAPTIASQPLSLRPEACRPAAGGAVHTRGLDFACDIYIWAPLAGTCGVLLLSLVIT[about 120 residues cut from this listing]
notes: Expressed on human CTL cells by lentivirus; also called scFv(MSLN)-CD8-CD3 zeta
B3: chimeric antigen receptor P3F2-28BBZ on CTL cells (receptor)
chain: QMQLVQSGAEVKKPGASVKVSCKASGYTFTSYYMHWVRQAPGQGLEWMGIINPSGGSTSYAQKFQGRVTMTRDTSTSTVYMELSSLRSEDTAVYYCASSRSGTTVVNHDAFDIWGKGTTVTVSSGGGGSGGGGSGGGGSDIQLTQSPSSLSASVGDRVTITCRASQVISRALAWYQQTPGKPPKLLIYDASNLQSGVPSRFSGSGSGTDFTLTISRLQPEDFATYYCQQFNSYPLTFGGGTKLEIKRTTTPAPRPPTPAPTIASQPLSLRPEACRPAAGGAVHTRGLDFACDFWVLVVVGGVLACYSLLVTVAFIIFWVRSKRSRLLHSDYMNMTPRRPGPTRKHYQPYAPPRDFAAYRSKRGRKKLLYIFKQPFMRPVQTTQEEDGCSCRFPEEEEGGCEL[about 120 residues cut from this listing]
notes: as for B1
B4: chimeric antigen receptor P3F2-28Z on CTL cells (receptor)
chain: QMQLVQSGAEVKKPGASVKVSCKASGYTFTSYYMHWVRQAPGQGLEWMGIINPSGGSTSYAQKFQGRVTMTRDTSTSTVYMELSSLRSEDTAVYYCASSRSGTTVVNHDAFDIWGKGTTVTVSSGGGGSGGGGSGGGGSDIQLTQSPSSLSASVGDRVTITCRASQVISRALAWYQQTPGKPPKLLIYDASNLQSGVPSRFSGSGSGTDFTLTISRLQPEDFATYYCQQFNSYPLTFGGGTKLEIKRTTTPAPRPPTPAPTIASQPLSLRPEACRPAAGGAVHTRGLDFACDFWVLVVVGGVLACYSLLVTVAFIIFWVRSKRSRLLHSDYMNMTPRRPGPTRKHYQPYAPPRDFAAYRS[about 120 residues cut from this listing]
notes: Expressed on human CTL cells by lentivirus; also called scFv(MSLN)-CD28a-CD28b-CD3 zeta
B5: chimeric antigen receptor P3F2-Z on CTL cells (receptor)
chain: QMQLVQSGAEVKKPGASVKVSCKASGYTFTSYYMHWVRQAPGQGLEWMGIINPSGGSTSYAQKFQGRVTMTRDTSTSTVYMELSSLRSEDTAVYYCASSRSGTTVVNHDAFDIWGKGTTVTVSSGGGGSGGGGSGGGGSDIQLTQSPSSLSASVGDRVTITCRASQVISRALAWYQQTPGKPPKLLIYDASNLQSGVPSRFSGSGSGTDFTLTISRLQPEDFATYYCQQFNSYPLTFGGGTKLEIKRTTTPAPRPPTPAPTIASQPLSLRPEACRPAAGGAVHTRGLDFACDIYIWAPLAGTCGVLLLSLVIT[about 120 residues cut from this listing]
notes: as for B2
B6: chimeric antigen receptor P1A6E-28Z on CTL cells (receptor)
chain: QVQLEQSGLGLVKPSQTLSLTCAISGDTVSSDSAAWNWIRQSPSRGLEWLGRTYYRSKWFNDYAVSVKGRITINSDTSKNQFSLQLNSVTPEDTAVYYCARSNSYYYYAMDVWGQGTLVTVSSGGGGSGGGGSGGGGSQAVLTQPSSLSASPGASASLTCTLRSGINVGIYRIYWYQQRPGSPPQILLTYKSDSDKYQGSGVPSRFSGSKDASANAGILLISGLQSEDEADYYCMIWHSGGWVFGGGTKVTVLGTTTPAPRPPTPAPTIASQPLSLRPEACRPAAGGAVHTRGLDFACDFWVLVVVGGVLACYSLLVTVAFIIFWVRSKRSRLLHSDYMNMTPRRPGPTRKHYQPYAPPRDFAAYRS[about 120 residues cut from this listing]
notes: as for B4

What follows are binders tested against human mesothelin on PANC-1-MSLN cells (human, UniProt Q13421 296-598) (assay: cell-based or functional assay).

| Binder | CYTOTOXICITY (%), effector target ratio 1:1, LDH release, 18 h [%] | CYTOTOXICITY (%), effector target ratio 1:3, LDH release, 18 h [%] | CYTOTOXICITY (%), effector target ratio 3:1, LDH release, 18 h [%] |
| --- | --- | --- | --- |
| B1 | 63.8 | 32.5 | 95.3 |
| B2 | 33.1 | 13.7 | 63 |
| B3 | 62.9 | 30.7 | 85.6 |
| B4 | 59.3 | 28.7 | – |
| B5 | 29.9 | 15.7 | 58.4 |
| B6 | 58.1 | 23.9 | 89.4 |

What follows are binders tested against T1, purified human mesothelin protein (recombinant, 6xHis tag) (human, UniProt Q13421 296-580) (assay: flow cytometry; CAR T cells stained with biotinylated human mesothelin recombinant protein and PE-labeled streptavidin).
T1 construct: also called hu-mesothelin; human mesothelin recombinant protein
Procedure: Infected CTL cells were detected by flow cytometry on day 8 of culture for the expression of different chimeric antigen receptors. Firstly, the infected CAR T cells were incubated with biotinylated human mesothelin recombinant protein for 1 h at 37° C., washed in D-PBS twice and then incubated with PE-labeled streptavidin for 40 min at 37° C. After washed with D-PBS for 3 times, the ratio of positive cells was determined by flow cytometry. Uninfected T lymphocytes was used as a negative control, the positive rates of virus-infected T cells expressing different chimeric antigen receptors are shown in Table 3.

| Binder | Positive rate of CTL cells transfection [%] |
| --- | --- |
| B1 | 69 |
| B2 | 58 |
| B3 | 77 |
| B4 | 86 |
| B5 | 68 |
| B6 | 73 |
